Measured values taken from PubChem BioAssay AID1240 (Sanford-Burnham Center for Chemical Genomics, 2008).
About 800 (1.6%) of roughly 50,000 compounds showed an effect of 50% or more. The list shows a part of the results.

Molecular target: Bcl-2-like protein 10 (Homo sapiens) (UniProt Q9HD36)
Test: Phenotype converters, Bcl-B/TR3 peptide binding displacement, primary biochemical FP (AID 1240);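 note: 0% = Bcl-B with tracer peptide and DMSO and 100% = tracer peptide lacking Bcl-B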
Details: GST-Bcl-B / FITC-TR3 peptide fluorescence polarization; stronger effect = higher value; compound at 3.75 mg/L

UniProt Q9HD36, sequence (Q9HD36 whole entry, looked up): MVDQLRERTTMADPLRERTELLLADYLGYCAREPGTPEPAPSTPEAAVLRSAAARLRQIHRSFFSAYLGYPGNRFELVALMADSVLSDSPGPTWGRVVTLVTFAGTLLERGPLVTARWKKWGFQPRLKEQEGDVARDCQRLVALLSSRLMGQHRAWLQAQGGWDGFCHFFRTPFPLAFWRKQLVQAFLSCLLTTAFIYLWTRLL

| Compound | displacement [%] |
| --- | --- |
| CCOc1cc(/C=C2\SC(N3CCCCCC3)=NC2=O)ccc1O | -16.7 |
| Cc1nnc(SCC(=O)NCC(=O)c2ccccc2)s1 | 0.6 |
| CN1C(=O)/C(=C/c2ccc3c(c2)OCO3)SC1=S | 80.3 |
| COC(=O)C1=C(C)NC2=C(C(=O)CC(C)(C)C2)C1c1ccccc1I (configuration not stated) | 11.9 |
| COc1cc(/C=C2\C(=O)NC(=O)N(Cc3ccccc3)C2=O)ccc1OCC(N)=O | -3.6 |
| CCCCP(=O)(CCCC)CCP(=O)(CCCC)CCCC | -1.8 |
| COc1ccc(C(=O)Nc2ccc([N+](=O)[O-])cc2Cl)c(OC)c1 | 4.7 |
| Cc1cc(C)c2c(c1)NC(c1ccc([N+](=O)[O-])cc1)C1CC=CC21 (configuration not stated) | 5.2 |
| COc1cc(C=C2C(=O)NC(=O)NC2=O)cc(Br)c1OCc1c(C)no[n+]1[O-] | 29.9 |
| CCOc1ccc(-c2csc(/C(C#N)=C\Nc3cc(OC)ccc3OC)n2)cc1 | 4.6 |
| COc1ccccc1-n1c(SCC(=O)Nc2ccccc2C)nc(O)cc1=O | -7.4 |
| O=C(CCCOc1ccc(Cl)cc1Cl)Nc1ccc([N+](=O)[O-])cc1Cl | -11.9 |
| CC1=C(C(=O)OC(C)C)C(c2cccc(F)c2)C2=C(CCCC2=O)N1 (configuration not stated) | 7.9 |
| CC(=O)C1=C(N2CCOCC2)CC(C)(C)CC1=O | 4.9 |
| O=C(COc1ccccc1)NCC(=O)N/N=C/c1cccs1 | 3.7 |
| O=C(CC1Sc2ccccc2NC1=O)Nc1ccc(SC(F)(F)F)cc1 (configuration not stated) | -13.2 |
| Cc1oc2c(CN3CCCC3)c(O)ccc2c(=O)c1-c1nc2ccccc2s1 | 12.7 |
| COc1ccc2c(c1)CC/C2=N\OC(=O)c1ccccc1OC | -6.4 |
| COc1ccc(CCNC(=O)C2CC(=O)N(c3ccc(Br)cc3)C2)cc1OC (configuration not stated) | 5.1 |
| O=[N+]([O-])c1ccc(S(=O)(=O)Nc2ccc(Nc3ccccc3)cc2)cc1 | 1 |
| Cc1cc(C)c(OCCCCn2ccnc2)c(C)c1 | -2 |
| COc1ccc(NC(=O)c2ccc(-c3ccccc3)cc2)cc1 | -0.3 |

| Compound | displacement [%] |
| --- | --- |
| CCSc1sc(CC)cc1CN1C(=O)c2ccccc2C1=O | -7.5 |
| O=c1c2c3c(sc2ncn1/N=C/c1cc([N+](=O)[O-])ccc1O)CCCC3 | 2.3 |
| COc1ccc(S(=O)(=O)N(CC(=O)Nc2cccc3ccccc23)c2ccc(C)cc2)cc1OC | 9.6 |
| Cc1cccc(OCCOc2ccc(/C=N/N3C(=O)CSC3=S)cc2)c1 | -2.6 |
| N#C/C(=C/c1ccc(I)o1)C(=O)Nc1ccc(Cl)c(Cl)c1 | -13 |
| CC(/C=C/c1ccco1)=N\Nc1nnc2c(n1)[nH]c1ccccc12 | 21.6 |
| COc1ccc(C(=O)NC(N2CCCCC2)C(Cl)(Cl)Cl)cc1OC (configuration not stated) | -3.2 |
| Oc1ccc2ccccc2c1/C=N/Nc1nn[nH]n1 | -7.8 |
| O=[N+]([O-])c1ccc(S(=O)(=O)NCCc2nc3ccccc3[nH]2)cc1 | 13.7 |
| CC(=O)Nc1ccc(S(=O)(=O)n2nc(C)c(Sc3ccccc3)c2C)cc1 | 8.9 |
| COc1cc(C)c(/C(C)=N\Nc2nc(C)c(C(C)=O)s2)cc1OC | -5.1 |
| COc1ccc(Br)cc1CN1CCN(C(=O)CC(C)C)CC1 | -29.1 |
| O=C(Nc1ccc(S(=O)(=O)N2CCc3ccccc32)cc1)c1ccccc1[N+](=O)[O-] | 7.1 |
| CCOC(=O)N1N=C(c2ccc(F)cc2)CC1(O)C(F)(F)F (configuration not stated) | 5 |
| COCCCNC(=O)COc1ccc(Cl)cc1C | -5.9 |
| COc1cc(NC(=O)c2ccc(Cl)c([N+](=O)[O-])c2)ccc1NC(=O)c1ccco1 | -1.2 |
| CCOc1cc(/C=C2\C(=O)N(c3ccc(S(N)(=O)=O)cc3)N=C2C)cc(Cl)c1O | -84.7 |
| O=C(CN(c1cccc(Cl)c1)S(=O)(=O)c1ccccc1)Nc1ccc2ccccc2c1 | 12.2 |
| NS(=O)(=O)c1ccc(-c2ccc(/C=c3/sc4nc5ccccc5n4c3=O)o2)cc1 | 48.2 |
| CC(C)COc1ccc2[nH]c3c(c2c1)CCCC3=O | 12.2 |
| Cc1cccc(N2CCN(C(=S)c3ccc(N(C)C)cc3)CC2)c1 | 9 |
| CCCc1cc(C(=O)OC)c(NC(=O)C2C3CCC(C3)C2C(=O)O)s1 (configuration not stated) | -9 |

| Compound | displacement [%] |
| --- | --- |
| O=[N+]([O-])c1ccc(N2CCCC2)cc1NCCOc1ccc(Cl)cc1 | 10.6 |
| Cc1cc(Cl)ccc1OCCCC(=O)Nc1ccc2c(c1)OCCO2 | -0.6 |
| CS/C(N)=N/N=C/c1cc(C)ccc1O | -10.8 |
| Cc1cc(C=O)c(C)n1-c1ccc(Sc2ccc([N+](=O)[O-])cc2)cc1 | -10.4 |
| COc1ccc(/C=C/C(=O)c2c(-c3ccccc3)c3cc(Br)ccc3[nH]c2=O)cc1 | 3 |
| Cc1nnc(N/N=C/c2c(O)ccc3ccccc23)n1N | 0.3 |
| COc1ccc(/C(C)=N/NC(=O)c2n[nH]c3c2CCCC3)cc1OC | -6 |
| COc1ccccc1N=Cc1c(O)n(-c2ccc(F)cc2)c(=O)[nH]c1=O | -24.6 |
| CS(=O)(=O)N(CC(=O)Nc1ccc(I)cc1)c1cccc(Cl)c1 | 13.1 |
| O=[N+]([O-])c1cc(C(F)(F)F)ccc1-n1nnc2ccccc21 | 10.9 |
| CCCOc1ccc(/C=C/C(=O)Nc2ccc(S(=O)(=O)Nc3ncccn3)cc2)cc1OC | 12.9 |
| O=C(Nc1c[nH]c(=O)[nH]c1=O)c1cccc(Br)c1 | 13.8 |
| O=S(=O)(Nc1ccc(Cl)c(Cl)c1)c1ccc2ccccc2c1 | 3.4 |
| CC(C)(C)c1cc(N2C(=O)C(=O)/C(=C(/O)c3ccc(Cl)cc3)C2c2ccc([N+](=O)[O-])cc2)no1 (configuration not stated) | -57.1 |
| CCOc1ccc(NC(=O)/C(=C/c2ccccc2)c2ccccc2)cc1 | 10.5 |
| Cc1ccc(S(N)(=O)=O)cc1NC(=O)CCCOc1ccc(Cl)cc1Cl | 1.2 |
| O=C1c2ccc([N+](=O)[O-])cc2C(=O)C1c1ccc2ccccc2n1 (configuration not stated) | 7.6 |
| COc1ccc(N(CC(=O)Nc2ccc(C)c(C)c2)S(=O)(=O)c2ccc(C)cc2)cc1 | -6.2 |
| Cc1ccc(NC(=O)c2oc3ccc(Cl)cc3c2C)c([N+](=O)[O-])c1 | -4.5 |
| COc1ccc(OC)c(/C=N/NC(=O)c2ccc[n+](Cc3ccccc3)c2)c1 | 0 |
| COc1ccc(C2C(C(C)=O)=C(O)C(=O)N2CCN(C)C)c(OC)c1 (configuration not stated) | -4.8 |
| O=[N+]([O-])c1cccc(-c2nnc(-c3ccc(Br)o3)o2)c1 | -11.6 |

| Compound | displacement [%] |
| --- | --- |
| CC(C)(C)CC(C)(C)NC(=O)CSc1nc2ccccc2s1 | -21.6 |
| COc1cccc(C2NC(=O)NC(C)=C2C(=O)Nc2ccccc2Cl)c1 (configuration not stated) | -15.9 |
| Cc1ccc(NC(=O)C2CC(=O)N(c3ccc(Br)cc3)C2)cc1C (configuration not stated) | -3.7 |
| COC(=O)C1=C(C)N(Cc2ccccc2)C(=O)/C1=C\c1ccc(C(=O)O)cc1 | 5.6 |
| O=S(N1CCCCC1)C12CC3CC(CC(C3)C1)C2 (configuration not stated) | 4.7 |
| CC1=C(C(=O)Nc2cccc(C)c2)C(c2cc(Br)ccc2O)NC(=O)N1 (configuration not stated) | 6.5 |
| Cc1ccc(OCC(=O)NCc2ccc3c(c2)OCO3)cc1 | 11 |
| O=C(NCc1ccc(Cl)c(Cl)c1)c1cc2ccccc2oc1=O | 10.5 |
| O=c1[nH]c(=O)n(Cc2ccccc2)cc1I | 3.3 |
| COc1cc2c(cc1NC(=O)c1c(-c3c(F)cccc3Cl)noc1C)oc1ccccc12 | -18.9 |
| Cc1cccc(NC(=O)c2cnccn2)c1 | 30.9 |
| CCCN(CCC)CCCNC(=O)C(=O)NCc1ccco1 | 14.5 |
| Cc1cc(C(=O)Nc2ccccn2)ccc1[N+](=O)[O-] | 0.7 |
| COCCOC(=O)C1=C(C)NC2=C(C(=O)CCC2)C1c1ccc(OCc2ccccc2)c(OC)c1 (configuration not stated) | -0.5 |
| CCOc1ccccc1N(CC(=O)NC(C)c1ccccc1)S(=O)(=O)c1ccccc1 (configuration not stated) | 1.3 |
| O=C(/C=C/c1ccc(F)cc1)Nc1cccc(Br)c1 | 23 |
| COc1ccc(/C=N/N2C(=O)c3ccccc3NC2c2ccc(OC)cc2)cc1 (configuration not stated) | -7.7 |
| CCOc1ccc(/C=N/N2CCN(Cc3ccc(Cl)cc3)CC2)cc1OC | 10.1 |
| COc1ccccc1CC(=O)Nc1cc([N+](=O)[O-])ccc1OC | 4.4 |
| COC(=O)C1=C(C(=O)OC)SC(=C2C(=S)C(C)(C)N(C(=O)CN3C(=O)CCC3=O)c3ccccc32)S1 | -11.9 |
| COc1ccc(-c2nnc(NC(=O)c3ccc(C)cc3)s2)cc1OC | 1.9 |
| CCC(=O)N1c2ccccc2NC2=C(C(=O)CC(c3ccccc3)C2)C1c1ccc(OC)cc1 (configuration not stated) | 2.3 |

| Compound | displacement [%] |
| --- | --- |
| CCOC(=O)c1[nH]c(C)c(C(=O)N/N=C/c2ccc(-c3ccc(Cl)cc3)o2)c1C | 7.2 |
| Cc1nc(-c2ccccc2)nc(N/N=C/c2c(F)c(F)c(F)c(F)c2F)c1C | -7.1 |
| COc1ccc2c(c1OC)C(=O)OC2Nc1cccc([N+](=O)[O-])c1 (configuration not stated) | 1 |
| NC(=O)/C=C\C(=O)Nc1cccc(C(F)(F)F)c1 | -2.5 |
| CCOC(=O)c1ccccc1NC(=O)Cc1cccs1 | 10.2 |
| CCC(C)C1C(C#N)=C(N)Oc2n[nH]c(-c3ccccc3)c21 (configuration not stated) | -7.8 |
| Cc1cc(Cl)ccc1OCCN1CCOCC1 | -1.9 |
| O=C(NCc1cccnc1)C(=O)N1CCCCC1 | -1.4 |
| CCN1C(=O)NC(c2ccc(Br)cc2)C(C(=O)OCCOC)=C1C (configuration not stated) | -7 |
| CCOC(=O)c1c(NC(=O)COc2ccc(Cl)cc2)sc2c1CCN(C(=O)OCC)C2 | -1.7 |
| CCOc1cc(OCC)cc(C(=O)Nc2cccc(Cl)c2Cl)c1 | 8.5 |
| Cc1ccc2oc(-c3ccc(NC(=O)c4ccc(Br)o4)cc3)nc2c1 | 42 |
| c1ccc2c(-c3csc(N4CCOCC4)n3)cccc2c1 | 13.4 |
| Cc1ccc(N2C(=O)S/C(=C\c3ccc(F)cc3)C2=O)cc1 | -5.5 |
| COc1ccc(NC(=O)c2ccc(Cl)c(Cl)c2)cc1OC | 2.2 |
| Cc1c(C(=O)Nc2ccc(Cl)cn2)cccc1[N+](=O)[O-] | 1.9 |
| NS(=O)(=O)c1ccc(-c2ccc(/C=N/Nc3ccccc3)o2)cc1 | -1 |
| O=C(CSc1nsc(SCC(=O)Nc2ccc(Cl)c(Cl)c2)n1)Nc1ccc(Cl)c(Cl)c1 | 8.7 |
| CC1(C)CC(=O)C(C(C2=C(O)CC(C)(C)CC2=O)c2cccs2)C(=O)C1 (configuration not stated) | -17.9 |
